Laboratory results: article PMC4336329 (PLoS ONE, 2015)
In all, about 310,000 compounds went through this assay and about 14,000 (4.5%) showed an effect of 50% or more. Effects have a minus sign here. The list shows a part of the results.

Each molecule was assayed against human ether-à-go-go-related gene (hERG) potassium channel (human, UniProt Q12809) (assay: primary screen, population patch clamp on CHO cells stably expressing hERG).
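Note: peak tail current of the secondary pulse compared with the same well before compound.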

Chain of human ether-à-go-go-related gene (hERG) potassium channel (Q12809 whole entry, looked up): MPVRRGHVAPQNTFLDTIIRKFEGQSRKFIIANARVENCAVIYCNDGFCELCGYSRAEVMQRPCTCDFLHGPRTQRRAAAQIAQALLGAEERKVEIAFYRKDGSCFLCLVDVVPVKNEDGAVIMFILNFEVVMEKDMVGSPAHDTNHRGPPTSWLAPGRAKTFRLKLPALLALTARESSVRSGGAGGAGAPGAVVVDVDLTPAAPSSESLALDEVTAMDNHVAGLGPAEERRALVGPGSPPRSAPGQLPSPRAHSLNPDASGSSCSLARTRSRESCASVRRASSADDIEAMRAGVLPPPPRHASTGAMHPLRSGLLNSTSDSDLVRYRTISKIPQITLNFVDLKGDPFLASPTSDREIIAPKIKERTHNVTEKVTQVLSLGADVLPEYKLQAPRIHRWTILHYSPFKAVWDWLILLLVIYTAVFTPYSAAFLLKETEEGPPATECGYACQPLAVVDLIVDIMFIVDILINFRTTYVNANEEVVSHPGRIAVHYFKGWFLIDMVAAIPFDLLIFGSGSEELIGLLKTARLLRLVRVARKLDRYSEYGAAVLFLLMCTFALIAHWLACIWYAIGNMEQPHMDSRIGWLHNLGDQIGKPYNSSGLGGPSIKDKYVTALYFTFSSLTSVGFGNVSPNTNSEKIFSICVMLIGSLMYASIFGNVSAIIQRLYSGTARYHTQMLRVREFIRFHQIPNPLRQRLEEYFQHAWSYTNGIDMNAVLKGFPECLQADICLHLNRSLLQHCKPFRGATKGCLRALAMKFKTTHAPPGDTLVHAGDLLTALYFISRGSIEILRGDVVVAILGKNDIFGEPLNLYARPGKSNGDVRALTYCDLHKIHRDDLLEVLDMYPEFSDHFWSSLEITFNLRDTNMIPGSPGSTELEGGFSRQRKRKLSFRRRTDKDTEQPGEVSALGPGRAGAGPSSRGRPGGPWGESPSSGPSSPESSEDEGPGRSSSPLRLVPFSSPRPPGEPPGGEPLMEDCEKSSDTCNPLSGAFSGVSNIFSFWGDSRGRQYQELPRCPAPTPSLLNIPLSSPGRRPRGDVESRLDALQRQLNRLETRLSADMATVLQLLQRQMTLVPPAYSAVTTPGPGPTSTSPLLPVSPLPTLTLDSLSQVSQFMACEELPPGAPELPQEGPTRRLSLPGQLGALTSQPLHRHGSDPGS

| SMILES | hERG current change (%, negative = inhibition) at 10uM [%] |
| --- | --- |
| NNC(=O)c1cc2c(s1)-c1cc(Cl)ccc1SC2 | 10.3 |
| COc1ccc(CN2CCC(N3CCC(C(=O)N4CCOCC4)CC3)CC2)c(F)c1 | -38.7 |
| CNC(=O)C12CCC(C)(c3nc4cc(C)c(C)cc4nc31)C2(C)C (stereo not drawn) | -13.1 |
| CCN1CCN(S(=O)(=O)Cc2ccccc2)CC1 | 8.52 |
| CC1(C)Cc2ccccc2-c2nnc(SCC(=O)N3CCN(c4ccccc4)CC3)n21 | -73.7 |
| O=C(O)C(=O)O.c1coc(CNCCc2c[nH]c3ccccc23)c1 | 1.35 |
| C/C(=N\NC(=O)COc1ccc(C(C)(C)C)cc1)c1ccc(-n2ccnc2)cc1 | -58.9 |
| CC(NCc1ccc(S(N)(=O)=O)cc1)C(=O)Nc1cc([N+](=O)[O-])ccc1Cl (stereo not drawn) | -45.8 |
| CCOC(=O)/C=C1\CN(CCC(C)C)S(=O)(=O)c2ccccc21 | -19 |
| CCOC(=O)N1CCN(S(=O)(=O)c2ccc3c4c(cccc24)C(=O)N3)CC1 | -14.5 |
| [N-]=[N+]=CC(=O)CNC(=O)[C@@H](Cc1ccccc1)N1C(=O)c2ccccc2C1=O | 6.66 |
| Cc1ccc(-n2c(-c3ccc(Cl)cc3Cl)n[nH]c2=S)cc1 | 24.3 |
| Cc1cc(C)cc(NC(=O)Nc2ccc3c(c2)N(C)C(=O)CS3)c1 | 8.27 |
| CCC1CN(C(=O)N2CCC(C(=O)NCCc3ccc(OC)c(OC)c3)CC2)c2ccccc2O1 (stereo not drawn) | 0.164 |
| COc1ccccc1N1CCN(C2CCCN(Cc3cccc(O)c3)C2)CC1 (stereo not drawn) | -9.65 |
| COc1ccccc1NCC(=O)c1ccc(Cl)cc1 | 4.01 |
| CC(=O)N1CCc2ccc(S(=O)(=O)N3CCc4ccccc43)cc21 | -39.3 |
| COC(=O)c1ccc(C(=O)OC)c(NC(=S)N2CCN(c3ccccc3F)CC2)c1 | -52.9 |
| O=C(O)CC(CP(=O)(c1ccccc1)c1ccccc1)C(=O)O (stereo not drawn) | 2.83 |
| COc1ccc(NS(=O)(=O)c2cc([N+](=O)[O-])ccc2N/N=C\c2c(C)[nH]c3ccccc23)cc1 | 22.8 |
| CCCCc1ccc(NC(=S)NCC2CCCO2)cc1 (stereo not drawn) | -16.2 |
| CCOc1ccccc1NC(=S)Nc1ccc2cn[nH]c2c1 | -14 |
| COc1cc(/C=C2\C(=N)N3N=C(C)SC3=NC2=O)cc(OC)c1OCCOc1ccccc1C | 30.7 |
| CC1CCN(S(=O)(=O)c2cccc(-c3csc(-c4cccnc4)n3)c2)CC1 | -0.0174 |
| O=C(CSc1nnc(-c2ccccc2Cl)o1)Nc1ccccn1 | 14.9 |
| COc1ccc(C)cc1NC(=O)Nc1ccccc1SC | 11.6 |
| Nc1cc(OC(=O)c2ccccc2Br)nn1S(=O)(=O)c1ccccc1 | 17.6 |

| SMILES | hERG current change (%, negative = inhibition) at 10uM [%] |
| --- | --- |
| COc1ccc(OCC(=O)N2CCN(C(=O)c3ccc([N+](=O)[O-])cc3)CC2)cc1 | -67.2 |
| CC1CC(NC(=O)/C=C/C(=O)O)CC(C)(C)C1 (stereo not drawn) | 15.5 |
| O=C(CSc1nnc(-c2ccccc2)o1)OCc1ccccc1 | 16.5 |
| COc1ccc(CCNC(=O)CSc2c[nH]c3ccccc23)cc1OC | -4.32 |
| N#C/C(=C\c1ccc(N2CCOCC2)o1)C(=O)NC1CCCCC1 | -7.2 |
| Cc1ccc(N2CC3=C(C2=O)C(c2ccccc2)NC(=O)N3C)cc1 (stereo not drawn) | 3.87 |
| COc1ccc(-n2c(C)cc(C(=O)COC(=O)c3cc(NC(=O)c4cccs4)c(OC)c(OC)c3)c2C)cc1 | 6.03 |
| Cc1ccc2c(=O)cc(C(=O)NCCc3ccc(S(N)(=O)=O)cc3)oc2c1 | 9.13 |
| COc1ccc(S(=O)(=O)N(C)CC(=O)N2CCCCCC2)cc1 | 14.5 |
| Cc1ccc(NC(=O)COC(=O)c2cccc3c(=O)c(C)c(-c4ccccc4)oc23)cc1 | 7.93 |
| CN(C)C(=O)CN1CCN(c2nc3nonc3nc2N2CCCCC2)CC1 | 1.83 |
| Cc1[nH]n(-c2ccc(F)cc2)c(=O)c1/C=N/c1sc2c(c1C#N)CCCC2 | 18.3 |
| CCc1ccc(/C=C2\Oc3cc(OC(=O)N4CCOCC4)ccc3C2=O)cc1 | 18.2 |
| COc1ccc(C(=O)N(C)CC(O)c2ccccc2)cc1OC1CCN(C(C)=O)CC1 (stereo not drawn) | 6.6 |
| CCC(=O)N(Cc1ccco1)c1nc(-c2ccc(OC)cc2)cs1 | 0.363 |
| Cc1c(Cc2ccccc2)sc(NC(=O)C(C)(C)C)c1C(N)=O | -20.8 |
| O=S(=O)(NC(=NCc1ccccc1)c1ccc(F)cc1)c1ccc(Cl)cc1 | 24.9 |
| O=C(Nc1ccncc1)Nc1ccc(F)cc1F | 13.1 |
| C[C@H](NC(=O)OCc1ccccc1)C(=O)NNC(=O)[C@H](C)NC(=O)OCc1ccccc1 | 17.3 |
| COc1ccc(C(=O)Oc2cc(/C=N/NS(=O)(=O)c3ccccc3)ccc2OC)cc1 | 14.2 |
| CCOc1ccc(C(=O)NC(=S)NCc2cccnc2)cc1 | -16.7 |
| COc1ccc(CN(C)C(=O)Cc2ccc(S(=O)(=O)N3CCOCC3)s2)cc1OC | 7.58 |
| CNc1nc(-c2c(C)[nH]c3ccc(OC)cc23)cs1 | 21.9 |
| Brc1ccc(Nc2c3c(nc4ncnn24)CCC3)cc1 | -21.4 |
| COc1ccc2cc3cc(C(=O)NC(C)C)oc3nc2c1 | 10.3 |
| O=C(/C(=C\c1ccccc1)c1nc2ccccc2[nH]1)c1ccc(Cl)cc1 | -9.53 |
| COc1ccc(C(=O)c2sc(Nc3ccccc3)c(C(=O)Nc3ccc(OC)c(OC)c3)c2N)cc1 | 7.79 |
